From PMC5116031 (Biochemistry, 2016) come the findings set out here.

This data set concerns the molecule itself. The data set is described as follows: ITC.

B1: human BECN1 CCD ([…]) with a C-terminal His6-tag (domain or fragment)
chain: not shown
Broadly, the Kd is a measure of binding affinity in units of concentration. Read a high Kd as weaker binding. Protein B1 returned a Kd of 48.3 ± 13.5 µM and a dH of 38.5 ± 25.1 kcal/mol.
